# Experimental data published in PMC12136788.
# This is one part of the list.
# T1: UNK ZnF1-3 (human, UniProt Q9C0B0 31-174)
# T1 sequence: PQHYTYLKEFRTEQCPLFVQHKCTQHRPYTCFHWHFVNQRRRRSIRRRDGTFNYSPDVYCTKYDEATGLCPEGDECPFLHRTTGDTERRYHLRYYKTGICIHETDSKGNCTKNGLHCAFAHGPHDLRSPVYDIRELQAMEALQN
# B1: chr3:123074269:123074270:-_ENSMUSG00000028114_ENSMUST00000029759|perfect_dup|motif|central (ssRNA)
# RNA: GGGAGUUCUACAGUCCGACGAUCGCGUCUUCUACCAAGACAAAAAUGCUCAAUUAUAUGAAAAAUUUCUACAGGUUUUUCGGUAUUGCCAAUUUCAGGUUCUUCUGUGAUAAUUAAGUCAAUGUCAACAUUAGCAUGAAUGAACAACAGAGGAUUGAGCAUCA
# B2: chr3:55757038:55757039:-_ENSMUSG00000027799_ENSMUST00000029374|mus_hu|motif|central (ssRNA)
# RNA: GGGAGUUCUACAGUCCGACGAUCCAUUGGAGCAACAGUUUGUACAGCUGGAAGGUUUUUGCUAGUAGCACCAUUCACAAAACGGGAAGAGGAGGAAGAGGAGGAGGACCCUGAAUCCACGGCACCUGUUGUAUUAAUCAUACUCAACAGAGGAUUGAGCAUCA
# B3: chr11:77340908:77340909:-_ENSG00000074201_ENST00000525064|hu_hu|FALSE|FALSE (ssRNA)
# RNA: GGGAGUUCUACAGUCCGACGAUCACUUCGGUCCCUGGAUAAUGCAUGUAAACUAAUGGUGGGGUAUUCCAGUGAGAAUCCUAAUCCAGAGCCAUCUAACCAAGACAGGCGGCUCUCAGCGAUGUAAAGGGUACCAGUGCCGAGCAACAGAGGAUUGAGCAUCA
# B4: 14672338_14672458_75_3pUTR_ENSMUSG00000024642_ENSMUST00000052011|mouse|control|control (ssRNA)
# RNA: GGGAGUUCUACAGUCCGACGAUCCAUUUCCUUUUCUUCCUUCCUGUUUUUUUAGCCCCAAAUUGAAGGGGAUUAUAAAAAUAAAAGAGCGAAACGCUUGCGGCUUUUUAAAAUUCUCUUUCAAACUCUGCGAACACCACCUCACAACAGAGGAUUGAGCAUCA
# B5: chr6:41757443:41757444:+_ENSG00000214736_ENST00000398881|hu_mus|hu_hu_hu_mus_False|8_38 (ssRNA)
# RNA: GGGAGUUCUACAGUCCGACGAUCGAACCGUGCAGAGGCAACAUCUCAGCCGACACUGGGGGAUGGGGGGGCAGUGGGGGGGGGUUCAGGCAAGGAGAAGAAAAGUGCUUCAGCUGCCACUCAGGUAGCUGCCAUCAGUCACAGCAACAGAGGAUUGAGCAUCA
# B6: chr1:187196858:187196859:+_ENSMUSG00000026615_ENSMUST00000046514|mus_mus|FALSE|FALSE (ssRNA)
# RNA: GGGAGUUCUACAGUCCGACGAUCAACAUCCCACUUGGUGCCAACUGAGCGGAAGGCCUGCUGGGCCUCAAGAAAGCCAAACCAGCGUUUAACGUGGACUAGAGUUUUGUUCUGUUUCAAGUGUUCCUGCCAUGCAGCACUUCCCAACAGAGGAUUGAGCAUCA
# B7: chr8:86465610:86465611:+_ENSMUSG00000013033_ENSMUST00000141158|mus_mus|motif|central (ssRNA)
# RNA: GGGAGUUCUACAGUCCGACGAUCUUGAGAAUGAGAGGAACACAGAGACAGCAAAAAAGGACACAACGGAAAGUUGAAUAGCGGGGAAAACUCAAAAGAAAAAGACCUAGAGAAAAAGAAUGAGCAAGAUUCAGGAGCAAAUGACAACAGAGGAUUGAGCAUCA
# B8: chr4:48207216:48207217:-_ENSMUSG00000028343_ENSMUST00000030028|mus_hu|FALSE|FALSE (ssRNA)
# RNA: GGGAGUUCUACAGUCCGACGAUCCUAGUAGUGCAAGUUAAUGGUAAGUUUCUGGCAAUGUCACCUUUCAUUUGAUUUAUAAAACUUUUACAGGACAGAUUUAAAGUGGAGAUAGGCCUCUGAUUUUUAUUUUUAAAUCCUAGCCAACAGAGGAUUGAGCAUCA
# B9: 118675932_118681251_813_3pUTR_ENSG00000135090_ENST00000392533|human|control|control (ssRNA)
# RNA: GGGAGUUCUACAGUCCGACGAUCUAAUGGCAGCGAUCUCCACUUCCUGAAGUGGUUUUUUAUGAACUUCUAAUAAAUCAGAGGCUGAGCCUAAGCAAUAUUCCAUCACCAACCAAGCAGUGUGUUCUUUCAAGUAACAGCCUUCAACAGAGGAUUGAGCAUCA
# B10: chr12:39763582:39763583:-_ENSG00000139116_ENST00000544797|hu_mus|hu_hu_hu_mus_False|88_88 (ssRNA)
# RNA: GGGAGUUCUACAGUCCGACGAUCCUCUAGGAACUGGGCAUUCACUUUAAAAUCUGGAGGGGGCAGCCCGUUUUUAAUCGCUGAGGUCUUUUUCUCAUCAAUACUCUUGAACAGGUGUCUAACAGCACGAGAGAUGAUGCCCUGCAACAGAGGAUUGAGCAUCA
# B11: chr1:8037743:8037744:+_ENSG00000116288_ENST00000493373|perfect_dup|motif|central (ssRNA)
# RNA: GGGAGUUCUACAGUCCGACGAUCUCCAUUCAUCAUUUUGUCUUUAGCAAGAGGGUGUGUUGUAACUUUACUUCCAAAACCGGUUUCAUGAGCCAACAGAGCAGUAGGACCUGCACAGAUGGCGGCUAUCAGGCCCUUCCGGUUCAACAGAGGAUUGAGCAUCA
# B12: chr4:148551591:148551592:-_ENSMUSG00000063077_ENSMUST00000060537|mus_hu|mus_mus_mus_hu_False|1_68 (ssRNA)
# RNA: GGGAGUUCUACAGUCCGACGAUCACCUGACAAAAUUAAAUAUCCCUGUAAAUUAGACAAUAAGCAGCAGGUAACAAAGUCUUUGCUUUGGAAUAUGUGCCAGGAAAAGUCAUCUUGUUUUUAGAUCUCAAGAGACACAACCAUCAACAGAGGAUUGAGCAUCA
# B13: chr11:85008163:85008164:-_ENSMUSG00000018481_ENSMUST00000018625|mus_hu|motif|central (ssRNA)
# RNA: GGGAGUUCUACAGUCCGACGAUCAGCAUUUUCAUACUGAUUCAUGUCAUAAUUAUAUAAAGAAGCCAGAUGUCCCACUGAAAGGGCGGCUUCAUAAUCUUCUUGACCAAGAAGUUGUUCUUUAAUCUGAAUUGCUUUGAUGUGCAACAGAGGAUUGAGCAUCA
# B14: chr3:10015032:10015033:+_ENSMUSG00000027533_ENSMUST00000029046|mus_mus|mus_mus_mus_hu_True|38_38 (ssRNA)
# RNA: GGGAGUUCUACAGUCCGACGAUCGUUUUUACCAUCACAAGUGAUGAUACAAUCUGGCUUGGCCAUUGCGCCCAUUUUUCGCAAAGCUAUUCCCACUCCUAGCUCUUUCAUGUAUUCAUCAAAGCCUUUGCUGUCCACCAGGCGCAACAGAGGAUUGAGCAUCA
# Biological target: T1, UNK ZnF1-3
# Test: nsRBNS (natural sequence RNA bind-n-seq); RBNS binding buffer (assumed for nsRBNS): 25 mM Tris pH 7.5, 150 mM KCl, 3 mM MgCl2, 0.01% Triton X-100, 500 ug/ml BSA, 20 U/ml SUPERase-In, 4 C; UNK is unkempt and MSI1 is Musashi-1; names of the RNAs are library labels; protein concentration not given here; high values mean tight binding
row,Binder,binding signal [enrichment R]
1,B1,1.08
2,B2,1.85
3,B3,1.48
4,B4,2.12
5,B5,1.69
6,B6,1.51
7,B7,2.36
8,B8,1.46
9,B9,1.34
10,B10,1.84
11,B11,0.883
12,B12,1.37
13,B13,1.27
14,B14,0.703
